Holding throughout (experiment): pull-down; GST-Dyn1 PRR constructs on GSH-sepharose beads incubated with rat brain synaptosomal (P2) lysate; 20 mM Tris pH 7.4, 150 mM NaCl, 1% Triton X-100, 1 mM EDTA, 1 mM EGTA; 4 °C, 1 h; bound proteins by Western blot with antibodies to Endophilin A and Amphiphysin 1; only the target purified
The target of test [1] is T1, GST-Dyn1xA 794-864 (rat) (UniProt P21575).
T1 sequence: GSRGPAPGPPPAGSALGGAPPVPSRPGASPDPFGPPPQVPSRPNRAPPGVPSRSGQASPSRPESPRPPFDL

Test [2] deals with T2, GST-Dyn1xA-PRR R838A (rat) (UniProt P21575).
T2 sequence: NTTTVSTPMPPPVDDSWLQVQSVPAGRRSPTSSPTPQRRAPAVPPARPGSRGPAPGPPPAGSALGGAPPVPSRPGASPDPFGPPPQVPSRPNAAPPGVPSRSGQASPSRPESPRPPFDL

Test [3] has as its target T3, GST-Dyn1xA-PRR R846A (rat) (UniProt P21575).
T3 sequence: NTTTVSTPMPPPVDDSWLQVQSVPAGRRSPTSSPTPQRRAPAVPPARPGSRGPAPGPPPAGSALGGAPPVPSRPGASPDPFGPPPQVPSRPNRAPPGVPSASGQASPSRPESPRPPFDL

Test [4] deals with T4, GST-Dyn1xA 806-864 P833/836A (rat) (UniProt P21575).
T4 sequence: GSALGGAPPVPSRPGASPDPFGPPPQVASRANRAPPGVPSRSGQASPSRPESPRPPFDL

Test [5] deals with T5, GST-Dyn1xA 806-864 R838A (rat) (UniProt P21575).
T5 sequence: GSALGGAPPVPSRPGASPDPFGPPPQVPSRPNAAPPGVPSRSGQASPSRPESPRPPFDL

Test [6] has as its target T6, GST-Dyn1xA-PRR P844A (rat) (UniProt P21575).
T6 sequence: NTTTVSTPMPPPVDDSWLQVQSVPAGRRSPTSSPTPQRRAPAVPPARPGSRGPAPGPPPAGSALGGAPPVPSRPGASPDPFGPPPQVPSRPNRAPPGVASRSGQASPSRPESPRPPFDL

Test [7] addresses T7, GST-Dyn1xA-PRR S851/857E (rat) (UniProt P21575).
T7 sequence: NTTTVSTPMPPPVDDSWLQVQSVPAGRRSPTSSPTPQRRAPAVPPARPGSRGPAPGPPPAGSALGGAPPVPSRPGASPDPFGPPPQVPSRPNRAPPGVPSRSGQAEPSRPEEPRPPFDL

The target of test [8] is T8, GST-Dyn1xA 806-864 P816/819A (rat) (UniProt P21575).
T8 sequence: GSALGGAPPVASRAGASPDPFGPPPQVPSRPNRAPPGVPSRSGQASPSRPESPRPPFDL

In test [9] the target is T9, GST-Dyn1xA-PRR P830/833A (rat) (UniProt P21575).
T9 sequence: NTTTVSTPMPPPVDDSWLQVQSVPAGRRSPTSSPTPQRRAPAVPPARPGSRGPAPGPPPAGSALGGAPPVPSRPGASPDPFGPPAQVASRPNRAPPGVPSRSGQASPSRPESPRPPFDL

The target in test [10] is T10, GST-Dyn1xA-PRR S774/778E (rat) (UniProt P21575).
T10 sequence: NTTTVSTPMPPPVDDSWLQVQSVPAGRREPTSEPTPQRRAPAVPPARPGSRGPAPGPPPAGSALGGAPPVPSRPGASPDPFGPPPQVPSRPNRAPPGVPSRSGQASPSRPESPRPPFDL

For test [11], the target named is T11, GST-Dyn1xA 806-864 P813/816A (rat) (UniProt P21575).
T11 sequence: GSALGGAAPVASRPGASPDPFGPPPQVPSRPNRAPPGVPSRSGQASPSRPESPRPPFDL

Test [12] concerns the target GST-Dyn1xA-PRR (full-length proline-rich region of Dynamin 1 splice variant xA, 746-864) (rat) (UniProt P21575).
The target of test [13] is T12, GST-Dyn1xA-PRR P833/836A (rat) (UniProt P21575).
T12 sequence: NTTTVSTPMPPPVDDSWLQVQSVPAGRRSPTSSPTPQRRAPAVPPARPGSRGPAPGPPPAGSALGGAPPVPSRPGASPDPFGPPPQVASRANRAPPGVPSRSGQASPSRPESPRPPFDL

For test [14], the target named is T13, GST-Dyn1xA 806-864 (rat) (UniProt P21575).
T13 sequence: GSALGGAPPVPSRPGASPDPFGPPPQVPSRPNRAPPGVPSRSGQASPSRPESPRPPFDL

Test [15] deals with T14, GST-Dyn1xA-PRR P816/819A (rat) (UniProt P21575).
T14 sequence: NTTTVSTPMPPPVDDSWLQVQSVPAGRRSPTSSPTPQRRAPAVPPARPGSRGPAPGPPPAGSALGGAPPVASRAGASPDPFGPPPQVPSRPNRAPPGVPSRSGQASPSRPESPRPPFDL

In test [16] the target is T15, GST-Dyn1xA 746-798 (rat) (UniProt P21575).
T15 sequence: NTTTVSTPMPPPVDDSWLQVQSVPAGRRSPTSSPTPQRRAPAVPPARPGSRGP

The target in test [17] is T16, GST-Dyn1xA-PRR P813/816A (rat) (UniProt P21575).
T16 sequence: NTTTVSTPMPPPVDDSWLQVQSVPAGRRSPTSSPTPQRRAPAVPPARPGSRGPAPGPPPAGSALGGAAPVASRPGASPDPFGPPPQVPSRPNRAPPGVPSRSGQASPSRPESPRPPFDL

These are yes or no findings as the source states them, for the method shown. In cells and extracts the contact can be indirect. Some binding calls cover weakened binding; strength is not graded here. For some assays here: Sequences can lack the tags named with a protein.

B1: Amphiphysin 1 (endogenous, rat brain synaptosomes) (protein, UniProt O08838 1-683)
chain: MADIKTGIFAKNVQKRLNRAQEKVLQKLGKADETKDEQFEEYVQNFKRQEAEGTRLQRELRGYLAAIKGMQEASMKLTESLHEVYEPDWYGREDVKMVGEKCDVLWEDFHQKLVDGSLLTLDTYLGQFPDIKNRIAKRSRKLVDYDSARHHLEALQSSKRKDESRISKAEEEFQKAQKVFEEFNVDLQEELPSLWSRRVGFYVNTFKNVSSLEAKFHKEIAVLCHKLYEVMTKLGDQHADKAFSIQGAPSDSGPLRIAKTPSPPEEASPLPSPTASPNHTLAPASPAPVRPRSPSQTRKGPPVPPLPKVTPTKELQQENIINFFEDNFVPEINVTTPSQNEVLEVKKEETLLDLDFDPFKPDVTPAGSAAATHSPMSQTLPWDLWTTSTDLVQPASGGSFNDFTQPQDTSLFTMQTDQNMAETEQALPTEPQAEEPPTTAAAPTAGLDLGLEMEEPKEEAAIPPGTDAGETVGTEGSTGEEAEAEKAALPAGEGESPEGAKIDVESTELASSESPQAAELEAGAPQEKVIPSVVIEPASNHEGEEHQETTTGTETREATEDVAPQGPAGEKQELATEPTPLDSQAATPAPAGAVDASLSAGDAAQELPPGFLYKVETLHDFEAANSDELTLQRGDVVLVVPSDSEADQDAGWLVGVKESDWLQYRDLATYKGLFPENFTRHLE
In the case of B1, the binding result in test [1] is listed as “binds”; in test [2], “binds”; in test [3], “binds”; in test [4], “no binding”; in [5], “binds weakly”; in test [6] it was “binds”. Moreover, the binding result in [7] is “binds”; in test [8] it was “binds”; in test [9] it was “no binding”; in [10] it was “binds”; in test [11], “binds”; in test [12], “binds”. Further, the binding entry in test [13] is “no binding”; in test [14], “binds”; in test [15], “binds”; in test [16], “no binding”; in test [17] it was “binds”.
